Results taken from PubChem BioAssay AID504845 (National Center for Advancing Translational Sciences (NCATS), 2011).
Among all 390,000 compounds or so, about 150 (0.038%) were called active. This list was built around the results that the source calls inconclusive (neither active nor inactive); the mix of calls is not that of the screen. Calls come from the whole dose curve; as a rule, active = well fitted inhibition curve with a large enough effect; inconclusive = small, poorly fitted or top-dose-only effect; inactive = no such curve, though single readings can be large or run the other way. Potencies beside an inconclusive call are fits to weak or partial responses and may not hold up.

molecular target: Regulator of G-protein signaling 4 (Homo sapiens) (UniProt P49798); test: Inhibitors of Regulator of G Protein Signaling (RGS) 4: qHTS; settings: Transcreener GDP fluorescence polarization, RGS4-accelerated GTP hydrolysis; series mostly up to 114 µM; activity change, negative = inhibition: at the top concentration; note: nearly all actives have a fitted effect of over 75% in size
How it was run: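 MLSMR compounds (23 nl, pin-transferred) preincubated 10 min at room temperature with a 500nM (2x) first reagent, then RGS4 at 900nM (2x) plus Transcreener GDP mix added; fluorescence polarization (620/688 nm) read before and after 90 min at 30 °C.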
% is set by controls: 0 for no effect and ±100 for the full control effect; potency is the fitted concentration of half-maximal effect; tags give direction and shape of the fitted curve.

Chain of UniProt P49798 (P49798 whole entry, looked up): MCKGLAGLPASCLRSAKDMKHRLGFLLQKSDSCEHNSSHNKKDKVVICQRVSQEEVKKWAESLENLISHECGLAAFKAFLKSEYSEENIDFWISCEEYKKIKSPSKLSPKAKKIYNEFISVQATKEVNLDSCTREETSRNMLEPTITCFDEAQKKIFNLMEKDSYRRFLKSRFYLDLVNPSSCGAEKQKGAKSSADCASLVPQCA

Structure (SMILES)	Potency	activity change, negative = inhibition
Cc1cccc(N2CCN(C(=O)/C=C/c3ccco3)CC2)c1C	inconclusive: 79.4 µM [inhibitor, single point]	–
Oc1ccccc1-c1cc(-c2ccc(F)cc2)n[nH]1	–	inactive: -42.2%
COC(=O)CCC(=O)Nc1sc(C)c(C)c1C(N)=O	inconclusive: 100 µM [inhibitor, partial curve, poor fit]	–
O=C1c2ccc(-c3ccc(F)cc3OCc3ccccc3)cc2S(=O)(=O)c2cccc(C(=O)N3CCN(c4ncc(Br)cn4)CC3)c21	–	inactive: 2.88%
COc1ccc2cc(C(=O)C3CCCN(Cc4cnc(N5CCOCC5)s4)C3)ccc2c1 (centres undefined)	–	inactive: -6.85%
Cc1cc(O)c(-c2ccnc3cc(-c4ccccc4)nn23)cc1Cl	–	inactive: 1.84%
CC1(C)Oc2ccc(C#N)cc2[C@@H](OC2=CC(=O)CC2)[C@@H]1O	inconclusive: 18.9 µM [inhibitor, partial curve, poor fit]	–
O=C(c1ccc(Cl)cc1)N1CCN(c2cccc3[nH]ccc23)CC1	–	inactive: -10.9%
Cc1ccc(C(=O)NC(=S)NNC(=O)COc2ccc([N+](=O)[O-])cc2)cc1	inconclusive: 56.2 µM [inhibitor, partial curve, poor fit]	–
Cc1nn(CCCC(=O)Nc2cccc(F)c2)c(=O)c2c1sc1ccccc12	–	inactive: -4.59%
CCOC(=O)COc1cc2c(C(=O)OCC)c(C)oc2cc1Br	–	inactive: -0.657%
COc1ccc(NC(=S)NC(=O)c2csnn2)cc1	inconclusive: 17.8 µM [inhibitor, full curve, poor fit]	–
CN(C)c1ccc(C(=O)OCC(=O)Nc2ccc(S(N)(=O)=O)cc2)cc1	inconclusive: 35.5 µM [inhibitor, full curve, poor fit]	–
O=C(O)[C@H](Cc1ccccc1)NC(=O)C(c1ccccc1)(c1ccccc1)c1ccccc1	inconclusive: 79.4 µM [inhibitor, partial curve, poor fit]	–
Cc1ccc(-c2cc(-c3ccc4c(c3)OCO4)c(C#N)c(N)n2)o1	inconclusive: 100 µM [inhibitor, single point]	–
COc1cc(NC(=O)CC(c2ccc(C)cc2)N2Cc3ccccc3C2=O)cc(OC)c1 (centres undefined)	–	inactive: -15.7%
O=[N+]([O-])c1cc(C(F)(F)F)ccc1NCC1CCCO1 (centres undefined)	inconclusive: 31.6 µM [inhibitor, partial curve, poor fit]	–
COC(=O)[C@@]1(Cc2ccccc2)[C@@H]2C(=CC(=O)[C@H]2CC(=O)C(=O)N(C)C)CN1C(=O)c1ccccc1	–	inactive: -47.7%
O=C(O)CCn1cc(/C=C\C(=O)c2ccc(Cl)cc2)c(-c2cccc(Br)c2)n1	inconclusive: 50.1 µM [inhibitor, partial curve, poor fit]	–
